The supplement of paper PMC3334620
Over roughly 33,000 sequences, “E-score (-0.5 to 0.5)” has its median near -0.035; the highest 2% begin near 0.35. The list shows a part of the results.

The sequences below were run against T1, Pdr3 (UniProt P33200) (assay: PBM E-score (8-mer binding enrichment) (E-score (-0.5 to 0.5)); higher = stronger / more preferred TF binding; most listed sequences are background and not binding sites). Conditions: protein concentration: 200 nM; construct: GST-full length.
T1 sequence: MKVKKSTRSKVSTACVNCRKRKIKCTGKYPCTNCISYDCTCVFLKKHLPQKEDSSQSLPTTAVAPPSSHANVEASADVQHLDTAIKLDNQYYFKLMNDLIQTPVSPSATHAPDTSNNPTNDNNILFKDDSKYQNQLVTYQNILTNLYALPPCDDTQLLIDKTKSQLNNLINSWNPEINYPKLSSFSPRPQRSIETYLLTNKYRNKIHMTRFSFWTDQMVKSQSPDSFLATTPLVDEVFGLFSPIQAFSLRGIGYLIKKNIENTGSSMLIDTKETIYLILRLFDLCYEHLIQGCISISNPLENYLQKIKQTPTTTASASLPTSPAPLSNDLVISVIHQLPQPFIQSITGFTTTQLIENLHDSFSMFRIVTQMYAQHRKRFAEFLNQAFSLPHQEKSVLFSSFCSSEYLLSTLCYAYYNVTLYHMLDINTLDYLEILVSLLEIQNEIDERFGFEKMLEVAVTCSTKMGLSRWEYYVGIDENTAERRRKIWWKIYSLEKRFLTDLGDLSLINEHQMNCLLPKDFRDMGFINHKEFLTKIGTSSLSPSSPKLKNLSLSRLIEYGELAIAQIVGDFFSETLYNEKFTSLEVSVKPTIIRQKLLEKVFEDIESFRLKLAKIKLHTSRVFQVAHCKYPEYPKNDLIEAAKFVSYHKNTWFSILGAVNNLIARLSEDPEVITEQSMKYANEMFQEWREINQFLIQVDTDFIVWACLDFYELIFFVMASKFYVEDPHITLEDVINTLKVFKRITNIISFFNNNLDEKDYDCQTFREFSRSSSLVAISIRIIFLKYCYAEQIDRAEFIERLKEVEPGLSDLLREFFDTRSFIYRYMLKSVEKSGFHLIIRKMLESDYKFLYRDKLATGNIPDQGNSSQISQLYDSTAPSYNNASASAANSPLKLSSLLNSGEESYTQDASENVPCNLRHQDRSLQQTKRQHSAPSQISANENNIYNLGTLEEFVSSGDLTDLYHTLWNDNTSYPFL
Summary of the method: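 E-scores (a modified Wilcoxon-Mann-Whitney statistic) were assigned by the Universal PBM Analysis Suite to every ungapped eight-base word pooled with its reverse complement. The input came from universal all-10-mer Agilent arrays made double-stranded by primer extension and probed with GST-tagged yeast transcription factors at about 100-200 nM. Fluorescent anti-GST detected bound protein, and masliner normalised the scans.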

Sequence	PBM E-score
ATCCCCGC	0.353
CTACTCGC	0.0561
TGCTGCAA	-0.153
CCGACCAG	0.102
ATAGGTGA	-0.188
AAATCTAT	-0.00749
GCCCATAC	-0.104
TGGCGGAA	0.359
TCCCCCAA	-0.313
ACCGGAAA	0.405
GGATTTAA	0.147
CTGTGATC	0.0396
AGATGCTG	-0.117
GCGTGCCC	-0.0178
GAAAGGTA	-0.0117
CTATCAAA	0.048
CTCCGGGC	0.236
CCCCGAGC	0.0663
TCAAGCCA	-0.171
GCAGCTGC	0.219
TCGGCGCA	0.181
AAAAACCC	-0.0297
CTAGTGTA	-0.262
GATGCTCC	0.232
CCTACGAG	-0.131

Sequence	PBM E-score
CCTAGAGA	-0.218
GGGCGCCA	0.195
CCACCCTA	-0.0335
CCATTTCG	-0.0848
GACTCGGA	0.39
GGTCTGAC	0.00827
CTGTCCAA	-0.128
CTTACTTC	0.082
CGAAAGTA	-0.14
CACCTGGA	-0.147
TCTTGTAA	0.0172
CTCGGTTA	0.0885
ACGGAAGG	0.397
AACATAAC	0.0669
CCGATTAG	0.157
ATCCTGGG	-0.104
CCATTTAG	-0.0489
ACGCTCAT	-0.0439
CGCTACGC	-0.119
AAAGGGAC	-0.174
ATTTCGGG	0.139
GGTCTGCA	0.0109
CCTAGTGA	-0.0249
ATTCAGAC	-0.166
CTAAAGGC	-0.185

Sequence	PBM E-score
CGTTTTTA	0.0102
GGGCATAC	-0.0177
CTCTGTCA	-0.272
ACTCGACA	0.0576
CTTTATAA	-0.237
ACTGGTAT	-0.0793
ACCGGGTC	0.184
CTACGATC	-0.166
CGGCGTAG	-0.0134
ACATTTAC	-0.0786
ACAATTGC	-0.0946
TTCGGCAA	-0.0284
CAGATGCG	-0.126
GTTTCATA	-0.00289
CGCAACGA	0.0402
ATTTCAGA	-0.0196
AACTTCGG	0.195
CGTTCCAA	-0.0612
TAAGAAAA	0.0179
GTTGAACA	-0.189
GGTCCCCA	-0.0977
AGCCCTCA	-0.248
GCCCGTAC	-0.0513
CCACAAAC	0.134
CTCAAAAA	-0.0515

Sequence	PBM E-score
AAACTAGG	-0.129
TACGTAGA	-0.178
ACAGCTCA	-0.137
CATTCCGC	0.421
ATAGACAG	-0.161
GGATATAC	0.175
CAGCTCAA	0.0732
ATTTGGCC	0.14
AACGCCTT	0.0867
ATCATAAT	0.0348
CGGCGTTA	0.184
CTCGGTTC	-0.0143
AAGTATTC	0.00329
AGAGTGCT	-0.14
CGGCGTGA	0.248
CCTACCAA	-0.0566
AGGGTGCA	-0.0818
CCCTGCGA	-0.184
CGTCGCAA	0.0832
CGTCGGCA	0.244
AAATCACC	0.172
GCACAGGA	0.0864
GTCAAAGA	-0.212
AATCCGCT	0.16
AACTTGAA	-0.0145

Sequence	PBM E-score
CTTTCTGA	-0.258
AGTTATGG	-0.187
CCCTTCAG	-0.173
CACCGATA	0.00215
ATCTCAGA	-0.0661
CCGGTGCA	0.227
AGCTGTAA	-0.292
CCGGCAGG	0.231
CCTTTGAG	-0.179
CTCATATC	0.016
TATGGTCA	-0.187
ATGATGCC	-0.0254
ATTCACGC	0.00639
GACTACGA	-0.165
GAAGCCCA	-0.141
GATGTACC	-0.191
AACCGGGC	0.0811
CAGTTTGC	-0.0283
CATAAAGG	-0.0331
CCTCCTAA	-0.307
CAGTCTCC	0.0366
ATTGAGCC	0.022
TATAAGGA	-0.0083
TAAGTAGA	-0.144
CACCTAAG	-0.137

Sequence	PBM E-score
GATAGACC	-0.0202
ATAAAAAC	-0.0945
CACCAGGC	-0.115
CGGGCCAG	0.135
CTTGGGGC	0.0478
CGTAAGCA	-0.23
CAGTCCAG	-0.25
AGATAAAC	0.011
ACTGGACC	0.0412
GAATGTGC	-0.0536
ATCATGAA	-0.03
CAGCGCAA	0.011
AAGACATG	-0.319
GGCCCAAA	0.0895
GACCCCAA	-0.0258
ATGAGGGA	-0.101
AGATGTTG	-0.0537
AGTTTAAA	0.102
AGGTCGGG	0.0139
GCAGAAGC	-0.0375
GACGCTCA	-0.0908
ACAGTTAT	-0.0775
AGCTAGCA	-0.161
AGCCTCTC	-0.138
CCACACCG	0.126

Sequence	PBM E-score
CAGCAGCG	-0.0164
CCTGCGAC	-0.182
AATGCAGT	-0.109
CCATGTGC	-0.0214
AGCCAGGG	-0.263
ACTGGATG	-0.178
ATAAAATC	0.0481
ACGAGGTG	-0.0248
AGTCACTA	-0.0771
GCCCGTTA	-0.0259
CCCCCATA	-0.309
ATATGCTG	-0.159
CAAGATGC	0.0992
GCAATACA	0.146
CAAGTATC	-0.0867
ACATCGCA	-0.0583
GCTTCGTA	-0.282
CATCAGGC	-0.111
ATAGGTTG	-0.198
ACCACGCT	-0.133
GAGAGTAA	0.157
ACAATGTA	-0.0513
TCACATAA	-0.0593
ATCGTTAC	-0.116
GCCCGAGC	0.164

Sequence	PBM E-score
AGCACGTA	-0.0777
GCCCCTAA	-0.0721
CAGTGTGG	-0.115
CAAACTGC	-0.0535
ACGCGTAC	-0.126
GATACGCC	0.163
CGCATTAG	-0.159
CTTACGAC	-0.192
AAAGTCAG	-0.0797
AAAACAAG	-0.0753
CGTGCGAG	0.158
ACGGGCGC	0.224
AATTAACT	0.0213
AAGCGTAT	-0.0784
AAGCGCTA	0.0554
CAGCCTAC	-0.0904
CGCGGGCA	0.397
CCTCGCCG	0.152
CTCTACGC	-0.19
GTGCTAGA	-0.274
GGAAAAAC	0.201
GGCATTCA	0.00396
GCAGTGAC	-0.022
CACGCGTA	-0.118
AATGCTGC	-0.138

Sequence	PBM E-score
CTGTACCA	-0.15
ATGACGTG	-0.0975
ACGAAGCC	0.0219
GACCACGA	-0.107
TCTATGCA	-0.315
ACACTAAG	-0.229
GAACATCC	0.278
CCCATACC	0.0332
AACTAGAT	0.096
GACGGCGC	0.212
AGCGCAAA	0.0157
ATAGTAAT	0.187
AGACCAGG	-0.0436
AGTTACAA	0.0783
CGTCCTAC	0.00947
TCCTTACA	-0.0346
GCCACGCA	-0.0605
AAGTGTGA	-0.227
ATCTGGAA	0.0147
